Experimental data from PMC4336329 (PLoS ONE, 2015).
The whole screen tested about 310,000 compounds, of which about 2,200 (0.71%) showed an effect of 50% or more. The effect is printed as a negative number. The list shows a part of the results.

Biological target: human ether-à-go-go-related gene (hERG) potassium channel (human, UniProt Q12809)
Assay: primary screen, population patch clamp on CHO cells stably expressing hERG

human ether-à-go-go-related gene (hERG) potassium channel, sequence (Q12809 whole entry, looked up): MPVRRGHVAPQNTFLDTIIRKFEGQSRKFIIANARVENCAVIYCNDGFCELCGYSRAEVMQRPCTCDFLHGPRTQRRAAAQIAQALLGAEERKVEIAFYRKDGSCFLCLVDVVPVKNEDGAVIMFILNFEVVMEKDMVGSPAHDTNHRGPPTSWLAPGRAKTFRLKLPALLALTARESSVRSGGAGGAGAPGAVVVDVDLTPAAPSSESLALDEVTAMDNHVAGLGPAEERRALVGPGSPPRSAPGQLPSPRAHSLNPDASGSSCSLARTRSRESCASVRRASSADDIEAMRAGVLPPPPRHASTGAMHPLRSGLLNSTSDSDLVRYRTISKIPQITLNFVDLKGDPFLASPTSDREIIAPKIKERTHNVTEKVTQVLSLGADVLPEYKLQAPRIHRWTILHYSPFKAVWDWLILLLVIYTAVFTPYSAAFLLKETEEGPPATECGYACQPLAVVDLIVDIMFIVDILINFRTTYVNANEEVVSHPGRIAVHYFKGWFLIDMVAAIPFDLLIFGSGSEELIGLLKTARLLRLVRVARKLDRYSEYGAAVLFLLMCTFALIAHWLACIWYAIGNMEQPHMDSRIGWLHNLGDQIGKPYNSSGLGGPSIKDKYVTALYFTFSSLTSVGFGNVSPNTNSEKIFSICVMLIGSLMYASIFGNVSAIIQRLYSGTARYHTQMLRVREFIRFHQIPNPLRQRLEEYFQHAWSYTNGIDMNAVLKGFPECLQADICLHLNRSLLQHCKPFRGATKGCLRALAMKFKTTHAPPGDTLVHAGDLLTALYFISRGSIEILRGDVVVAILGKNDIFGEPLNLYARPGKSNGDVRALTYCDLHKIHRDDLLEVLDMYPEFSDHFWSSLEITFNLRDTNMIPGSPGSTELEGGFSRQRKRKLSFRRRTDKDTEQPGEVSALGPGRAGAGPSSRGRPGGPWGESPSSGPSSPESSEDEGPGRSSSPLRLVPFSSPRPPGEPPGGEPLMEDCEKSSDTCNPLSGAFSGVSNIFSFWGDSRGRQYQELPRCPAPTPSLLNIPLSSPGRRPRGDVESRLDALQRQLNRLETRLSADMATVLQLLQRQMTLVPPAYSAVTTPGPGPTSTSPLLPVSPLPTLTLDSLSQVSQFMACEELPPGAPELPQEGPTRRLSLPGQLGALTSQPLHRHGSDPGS

Point of comparison: `Cc1ccc(-c2csc3ncn(CC#N)c(=O)c23)cc1`, “hERG current change (%, negative = inhibition) at 1uM” value 8.21%. Against it:
- COCCN(Cc1cc2ccccc2[nH]c1=O)C(=O)c1ccccc1OC — lower, -1.31%
- CC(Oc1ccc2c3c(c(=O)oc2c1)CCC3)C(=O)NCC1CCC(C(=O)O)CC1 (stereo not drawn) — higher, 10.5%
- C=CCNC(=O)Nc1ccc2oc(C)nc2c1 — lower, -0.0811%
- CN(CC(=O)Nc1ccc(S(=O)(=O)N2CCCC2)cc1)Cc1ccc(Cl)cc1 — higher, 13.3%
- O=C(Nc1ccc(Br)cc1)C(c1ccccc1)c1ccccc1 — higher, 13.9%
- CCOc1cc(NC(=S)NCC2CCCO2)c(OCC)cc1NC(=O)c1ccccc1C (stereo not drawn) — lower, -11%
- CCc1c(C)nc(N2CCN(c3ccc(OC)cc3)CC2)[nH]c1=O — higher, 12.8%
- Cc1ccc(CNS(=O)(=O)c2ccc3oc(C(=O)O)c(C)c3c2)cc1 — lower, -1.47%
- COc1ccc(NC(=O)CSc2c3c(nc4ccccc24)CCC3)c(OC)c1 — lower, -3.61%
- CCc1nc2c(c(=O)c3ccccc3n2C)c(=O)n1C1CCCCCC1 — higher, 13.7%
- CCCCn1c(SCC(=O)NC2CC2)nnc1-c1ccncc1 — higher, 12.4%
- CC(C)C(c1nnnn1Cc1ccccc1)N(CCCO)Cc1cc2cc3c(cc2[nH]c1=O)OCO3 (stereo not drawn) — higher, 10.4%
- COc1ccccc1N1CCN(C(=O)N2CCOCC2)CC1 — higher, 16.4%
- COc1ccc(C)cc1S(=O)(=O)N1CCCC(C(=O)N2CCN(c3ccccc3F)CC2)C1 (stereo not drawn) — lower, -1.82%
- CCOC(=O)N1CCC(NC(=O)c2cc(COc3ccc(F)cc3Cl)on2)CC1 — lower, -1.06%
- CN(C)CCN1C(=O)C(=O)/C(=C(/O)c2ccc(F)cc2)C1c1ccccc1F (stereo not drawn) — higher, 14.2%
- C=CCN1C(=O)[C@@H]2Cc3c([nH]c4ccccc34)C(c3ccc(O)cc3)N2C1=S (stereo partly drawn) — higher, 11.7%
- O=C(NC1CCSc2ccccc21)c1ccc(F)c(S(=O)(=O)N2CCOCC2)c1 (stereo not drawn) — higher, 13.3%
- O=c1cc(N2CCC3(CC2)OCCO3)[nH]c(=O)n1-c1ccc(Cl)cc1 — lower, -4.19%
- COCCCN(C(=O)c1ccco1)c1nc(-c2ccc(OC)cc2)cs1 — higher, 12.5%
- Cc1cc(C)n(-c2nc3ccccc3c(=O)n2OCC(C)C)n1 — lower, 7.56%
- CN(c1ccccc1)c1ccc(/C=C(\C#N)c2nnc3n2CCCCC3)cc1[N+](=O)[O-] — lower, -4.69%
- COc1cccc(CNC(=O)C2CCC(=O)N(CC3CCCCC3)C2)c1OC (stereo not drawn) — lower, 6.02%
- O=C(COC(=O)C1CC1)c1c[nH]c2ccccc12 — lower, 5.49%
- Cc1cc(C)c2cc(C(O)c3nnnn3Cc3ccccc3)c(=O)[nH]c2c1 (stereo not drawn) — lower, -3.03%
- C[C@@H](O)[C@H]1O[C@]2(C)CCC[C@H]1O2 — higher, 11.1%
- O=C(CN(Cc1ccccc1C(F)(F)F)C(=O)CNC(=O)c1ccco1)NC1CCCC1 — lower, 1.31%
- Cc1cc(NC(=O)CCCOc2ccc(Cl)cc2Cl)no1 — higher, 11.7%
- CN(C)S(=O)(=O)c1ccc(NC(=S)NC(=O)Cc2ccccc2)cc1 — higher, 13.1%
- CCN=C1SC(C(=O)Nc2cccc(Cl)c2)CC(=O)N1CC (stereo not drawn) — lower, -0.803%
- CCN1C(=O)C2(C(C(=O)c3ccc(C)o3)=C(O)C(=O)N2CCCN(C)C)c2ccccc21 (stereo not drawn) — higher, 14%
- Cc1cc(C)c(S(=O)(=O)n2ccc3ccccc32)c(C)c1 — higher, 15.1%
- CC(=O)O.NC1=NC(c2ccc(Br)cc2)n2c(nc3ccccc32)N1 (stereo not drawn) — lower, 6.1%
- C/C(=N\Nc1ccc(F)cc1)c1ccncc1 — lower, -2.2%
- Cc1ccccc1C(=O)NCCCNC(=O)c1ccccn1 — higher, 9.28%
- O=C(O)c1cc(-c2ccccc2Cl)n(-c2ccc(F)cc2)n1 — higher, 13.9%
- Cn1nnnc1Sc1ccc(C(=O)O)cc1[N+](=O)[O-] — higher, 10.8%
- CC(C)OC(=O)CCc1nc2ccccc2[nH]c1=O — higher, 16.2%
- Nn1c(SCC(=O)Nc2ccc(F)cc2)nnc1-c1cccnc1 — higher, 20%
- CCOC(=O)Nc1ccc2nc(N3CCCCCC3)sc2c1 — lower, -28%
- CCc1cccc(NC(=O)Cc2cn(C)c3ccccc23)c1 — lower, 2.88%
- CCOc1ccc(S(=O)(=O)N(C)c2ccc(OCC(=O)NCCc3ccc(OC)cc3)cc2)cc1 — higher, 11.5%
- C/C(=N\NC(=O)c1cccc(C)c1O)c1ccc(NC(=O)Cc2ccccc2)cc1 — lower, -12.9%
- O=C1CC(c2ccccc2)CC(O)=C1C=NCCN1CCNCC1 (stereo not drawn) — higher, 14.3%
